The entries are a selection whose mix differs from that of the whole data set. The list includes weakly bound sequences.

Common to all, as to test: protein-binding microarray (PBM)
Holding throughout (settings): PBM: ~300 nM protein, 6 mM HEPES pH 7.8, 80 mM KCl, 0.5 mM EDTA, 0.5 mM EGTA, 6% glycerol, 35 ng/ul poly-dIdC, 1% milk, 1 h, room temperature; Ap Aiptasia and Nv Nematostella (sea anemones) / Co Capsaspora / Aq Amphimedon (sponge) / Dm Drosophila / Hu human; RHD is the Rel homology domain; high values mean tight binding; most listed sequences are background and not binding sites; double strand, one strand shown

One assay has as its target T1, GST-Co-NF-kB (UniProt F1ARL5).
T1 sequence: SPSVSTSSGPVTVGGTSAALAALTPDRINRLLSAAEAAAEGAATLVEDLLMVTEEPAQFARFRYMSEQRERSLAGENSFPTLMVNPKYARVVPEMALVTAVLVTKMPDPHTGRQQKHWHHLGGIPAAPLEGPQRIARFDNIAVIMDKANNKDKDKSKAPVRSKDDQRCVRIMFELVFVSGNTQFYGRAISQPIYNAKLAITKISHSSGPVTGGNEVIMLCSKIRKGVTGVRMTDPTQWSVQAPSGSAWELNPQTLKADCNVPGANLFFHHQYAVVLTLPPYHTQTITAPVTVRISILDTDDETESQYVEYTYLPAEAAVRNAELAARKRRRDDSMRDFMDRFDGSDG

For another assay, the target named is T2, GST-Aq-NF-kB (UniProt A9Y5G7).
T2 sequence: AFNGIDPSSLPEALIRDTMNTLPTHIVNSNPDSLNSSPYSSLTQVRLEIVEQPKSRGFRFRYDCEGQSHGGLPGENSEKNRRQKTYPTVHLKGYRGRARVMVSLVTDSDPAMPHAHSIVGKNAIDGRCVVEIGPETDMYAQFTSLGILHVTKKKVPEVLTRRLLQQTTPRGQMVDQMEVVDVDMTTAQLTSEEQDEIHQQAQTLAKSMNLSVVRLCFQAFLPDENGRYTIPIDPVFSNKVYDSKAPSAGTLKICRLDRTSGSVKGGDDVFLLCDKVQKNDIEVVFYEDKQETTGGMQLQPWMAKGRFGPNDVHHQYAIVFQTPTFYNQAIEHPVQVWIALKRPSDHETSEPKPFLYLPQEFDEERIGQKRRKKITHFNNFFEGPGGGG

The target in assay [1] is T3, GST-Nv-NF-kB (Cys allele) (UniProt E5G601).
T3 sequence: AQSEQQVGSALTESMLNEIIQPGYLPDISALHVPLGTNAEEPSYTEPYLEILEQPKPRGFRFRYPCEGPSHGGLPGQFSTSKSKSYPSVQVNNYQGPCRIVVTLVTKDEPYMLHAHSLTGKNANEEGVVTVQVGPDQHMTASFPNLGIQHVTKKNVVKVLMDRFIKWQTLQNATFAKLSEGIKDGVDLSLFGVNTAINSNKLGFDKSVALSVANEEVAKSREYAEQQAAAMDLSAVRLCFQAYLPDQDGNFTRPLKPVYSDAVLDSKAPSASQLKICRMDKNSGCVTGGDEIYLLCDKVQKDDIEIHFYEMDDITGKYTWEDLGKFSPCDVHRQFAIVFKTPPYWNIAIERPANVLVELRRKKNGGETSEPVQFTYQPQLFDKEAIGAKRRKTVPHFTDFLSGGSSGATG

Another assay has as its target T4, GST-Dm-Relish (UniProt Q94527).
T4 sequence: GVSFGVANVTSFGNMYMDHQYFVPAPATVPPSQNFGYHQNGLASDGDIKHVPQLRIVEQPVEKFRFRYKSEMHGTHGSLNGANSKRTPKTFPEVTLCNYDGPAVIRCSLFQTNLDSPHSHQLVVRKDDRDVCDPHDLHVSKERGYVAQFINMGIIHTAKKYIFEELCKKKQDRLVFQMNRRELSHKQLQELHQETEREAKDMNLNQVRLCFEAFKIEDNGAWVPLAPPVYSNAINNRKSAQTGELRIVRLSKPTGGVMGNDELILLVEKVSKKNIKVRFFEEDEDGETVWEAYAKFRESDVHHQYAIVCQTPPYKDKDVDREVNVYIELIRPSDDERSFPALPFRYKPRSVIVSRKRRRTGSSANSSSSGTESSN

With “CCGATTAACATCAATTTCCCCCCTGATGTTAATCGGGTCTTGATTCGCTTGACGCTGCTG”, the figures for the binding signal with GST-Co-NF-kB and with GST-Aq-NF-kB were 11.5 z-score and 6.64 z-score, respectively.

With “CCGATTAACATCAGGGGGAATGATGATGTTAATCGGGTCTTGATTCGCTTGACGCTGCTG”, the binding signal with GST-Co-NF-kB was 6.6 z-score; with GST-Aq-NF-kB, 4.98 z-score.

In the case of “CCGATTAACATCAATGGGATTTCTGATGTTAATCGGGTCTTGATTCGCTTGACGCTGCTG”, the results for the binding signal with GST-Co-NF-kB and with GST-Aq-NF-kB were 1.38 z-score and 2.47 z-score, respectively.

For the sequence “CCGATTAACATCAGGAAGCCCCCTGATGTTAATCGGGTCTTGATTCGCTTGACGCTGCTG”, the binding signal in the assay with GST-Co-NF-kB came to 1.49 z-score; in the assay with GST-Aq-NF-kB, 7.03 z-score.

“CCGATTAACATCAAATTCTCCCCTGATGTTAATCGGGTCTTGATTCGCTTGACGCTGCTG”: the binding signal with GST-Co-NF-kB was determined as 8.72 z-score; with GST-Aq-NF-kB, 5.21 z-score.

As to “CCGATTAACATCACGGCAATCCCTGATGTTAATCGGGTCTTGATTCGCTTGACGCTGCTG”, the binding signal in the assay with GST-Co-NF-kB was found to be 0.66 z-score; with GST-Aq-NF-kB, 2.66 z-score.

Take “CCGATTAACATCAACTTGGGAAATGATGTTAATCGGGTCTTGATTCGCTTGACGCTGCTG”: the binding signal in assay [1] stood at 2.47 z-score; with GST-Dm-Relish, 0.789 z-score; with GST-Aq-NF-kB, 1.15 z-score.

Consider “CCGATTAACATCAATTAGGTGGGTGATGTTAATCGGGTCTTGATTCGCTTGACGCTGCTG”, for which the binding signal turned out to be 0.545 z-score in assay [1], 0.379 z-score in the assay with GST-Dm-Relish and 0.896 z-score with GST-Aq-NF-kB.

With “CCGATTAACATCACGGGACTTCCTGATGTTAATCGGGTCTTGATTCGCTTGACGCTGCTG”, the binding signal with GST-Co-NF-kB is 0.0562 z-score; with GST-Aq-NF-kB it was 6.21 z-score.

“CCGATTAACATCACAATTTTCCCTGATGTTAATCGGGTCTTGATTCGCTTGACGCTGCTG”: the binding signal in the assay with GST-Co-NF-kB turned out to be 5.61 z-score; with GST-Aq-NF-kB, 5.58 z-score.

On to “CCGATTAACATCACTAGGCGGGATGATGTTAATCGGGTCTTGATTCGCTTGACGCTGCTG”, for which the binding signal in assay [1] was -0.412 z-score; in the assay with GST-Dm-Relish, 0.046 z-score; in the assay with GST-Aq-NF-kB it was 0.567 z-score.

As to “CCGATTAACATCACATGTTTCCCTGATGTTAATCGGGTCTTGATTCGCTTGACGCTGCTG”, the binding signal came out at 4.5 z-score with GST-Co-NF-kB and 4.01 z-score in the assay with GST-Aq-NF-kB.

Regarding “CCGATTAACATCAATCTTTCCCCTGATGTTAATCGGGTCTTGATTCGCTTGACGCTGCTG”, the binding signal was found to be 8.32 z-score with GST-Co-NF-kB and 5.91 z-score in the assay with GST-Aq-NF-kB.

Consider “CCGATTAACATCAGGACTCCCCATGATGTTAATCGGGTCTTGATTCGCTTGACGCTGCTG”, for which the binding signal was found to be 3.44 z-score with GST-Co-NF-kB and 4.12 z-score with GST-Aq-NF-kB.

Regarding “CCGATTAACATCAGGGCATCCCCTGATGTTAATCGGGTCTTGATTCGCTTGACGCTGCTG”, the binding signal with GST-Co-NF-kB is 2.46 z-score; with GST-Aq-NF-kB, 8.18 z-score.

Turning to “CCGATTAACATCAGGGATTACCATGATGTTAATCGGGTCTTGATTCGCTTGACGCTGCTG”, the binding signal in the assay with GST-Co-NF-kB was 1.11 z-score; in the assay with GST-Aq-NF-kB, 3.67 z-score.

On to “CCGATTAACATCACCGGGGATAGTGATGTTAATCGGGTCTTGATTCGCTTGACGCTGCTG”, for which the binding signal amounted to 3.83 z-score with GST-Co-NF-kB and 1.82 z-score in the assay with GST-Aq-NF-kB.

Consider “CCGATTAACATCAGGAATGTCCCTGATGTTAATCGGGTCTTGATTCGCTTGACGCTGCTG”, for which the binding signal in the assay with GST-Co-NF-kB was 0.775 z-score; with GST-Aq-NF-kB, 6.41 z-score.

For “CCGATTAACATCACGGAACCCCCTGATGTTAATCGGGTCTTGATTCGCTTGACGCTGCTG”, the binding signal amounted to 2.13 z-score with GST-Co-NF-kB and 5.54 z-score with GST-Aq-NF-kB.

With “CCGATTAACATCAAGAGATCCCCTGATGTTAATCGGGTCTTGATTCGCTTGACGCTGCTG”, the binding signal was found to be 2.3 z-score with GST-Co-NF-kB and 4.97 z-score in the assay with GST-Aq-NF-kB.

For “CCGATTAACATCAGCTAATTCCCTGATGTTAATCGGGTCTTGATTCGCTTGACGCTGCTG”, the values for the binding signal with GST-Co-NF-kB and in the assay with GST-Aq-NF-kB were 1.82 z-score and 3.15 z-score, respectively.

Take “CCGATTAACATCATGGGGGGTAATGATGTTAATCGGGTCTTGATTCGCTTGACGCTGCTG”: the binding signal was found to be 3.18 z-score in assay [1], 2.79 z-score with GST-Dm-Relish and 3.56 z-score in the assay with GST-Aq-NF-kB.

Turning to “CCGATTAACATCAGGAAACCACCTGATGTTAATCGGGTCTTGATTCGCTTGACGCTGCTG”, the binding signal is 0.258 z-score with GST-Co-NF-kB and 6.62 z-score in the assay with GST-Aq-NF-kB.

As to “CCGATTAACATCACGGGACCCCCTGATGTTAATCGGGTCTTGATTCGCTTGACGCTGCTG”, the binding signal with GST-Co-NF-kB stood at 1.75 z-score; with GST-Aq-NF-kB, 3.7 z-score.

“CCGATTAACATCAAAATTCCACCTGATGTTAATCGGGTCTTGATTCGCTTGACGCTGCTG”: the binding signal with GST-Co-NF-kB is 0.948 z-score; with GST-Aq-NF-kB it was 2.25 z-score.

Turning to “CCGATTAACATCAGGAGTTCCCATGATGTTAATCGGGTCTTGATTCGCTTGACGCTGCTG”, the binding signal amounted to 1.68 z-score with GST-Co-NF-kB and 3.51 z-score in the assay with GST-Aq-NF-kB.

For the sequence “CCGATTAACATCAAACGCCCCCCTGATGTTAATCGGGTCTTGATTCGCTTGACGCTGCTG”, the results for the binding signal in the assay with GST-Co-NF-kB and with GST-Aq-NF-kB were 3.84 z-score and 5.57 z-score, respectively.

Consider “CCGATTAACATCAGGGGAGAAAATGATGTTAATCGGGTCTTGATTCGCTTGACGCTGCTG”, for which the binding signal stood at 5.5 z-score in assay [1], 2.26 z-score in the assay with GST-Dm-Relish and 3.89 z-score with GST-Aq-NF-kB.

For “CCGATTAACATCACGTTTCCCCCTGATGTTAATCGGGTCTTGATTCGCTTGACGCTGCTG”, the values for the binding signal with GST-Co-NF-kB and with GST-Aq-NF-kB were 9.58 z-score and 5.17 z-score, respectively.

Regarding “CCGATTAACATCACGGAAAGCCCTGATGTTAATCGGGTCTTGATTCGCTTGACGCTGCTG”, the results for the binding signal with GST-Co-NF-kB and with GST-Aq-NF-kB were 0.308 z-score and 4.35 z-score, respectively.

With “CCGATTAACATCAGGAAGTCCCATGATGTTAATCGGGTCTTGATTCGCTTGACGCTGCTG”, the binding signal with GST-Co-NF-kB is 0.513 z-score; in the assay with GST-Aq-NF-kB, 4.99 z-score.

With “CCGATTAACATCAATTCCCCCCGTGATGTTAATCGGGTCTTGATTCGCTTGACGCTGCTG”, the binding signal with GST-Co-NF-kB worked out at 8.8 z-score; with GST-Aq-NF-kB, 5.76 z-score.

For the sequence “CCGATTAACATCAGGGGAAGACCTGATGTTAATCGGGTCTTGATTCGCTTGACGCTGCTG”, the binding signal in the assay with GST-Co-NF-kB came to 5.23 z-score; with GST-Aq-NF-kB, 7.72 z-score.
